# Source: PubChem BioAssay AID1030 (National Center for Advancing Translational Sciences (NCATS), 2008)
# Out of some 220,000 compounds screened, about 16,000 (7.3%) were called active. This list was built around the results that the source calls inconclusive (neither active nor inactive); the mix of calls is not that of the screen. Calls follow the shape of the dose curve; as a rule, active = well fitted inhibition curve with a large enough effect (not every such curve was filed as active); inconclusive = small, poorly fitted or top-dose-only effect, or another doubt; inactive = no such curve, though single readings can be large or run the other way. Potencies of inconclusive entries are left out as doubtful fits.
# Biological target: Aldehyde dehydrogenase 1A1 (Homo sapiens) (UniProt P00352)
# Chain of UniProt P00352 (P00352 whole entry, looked up): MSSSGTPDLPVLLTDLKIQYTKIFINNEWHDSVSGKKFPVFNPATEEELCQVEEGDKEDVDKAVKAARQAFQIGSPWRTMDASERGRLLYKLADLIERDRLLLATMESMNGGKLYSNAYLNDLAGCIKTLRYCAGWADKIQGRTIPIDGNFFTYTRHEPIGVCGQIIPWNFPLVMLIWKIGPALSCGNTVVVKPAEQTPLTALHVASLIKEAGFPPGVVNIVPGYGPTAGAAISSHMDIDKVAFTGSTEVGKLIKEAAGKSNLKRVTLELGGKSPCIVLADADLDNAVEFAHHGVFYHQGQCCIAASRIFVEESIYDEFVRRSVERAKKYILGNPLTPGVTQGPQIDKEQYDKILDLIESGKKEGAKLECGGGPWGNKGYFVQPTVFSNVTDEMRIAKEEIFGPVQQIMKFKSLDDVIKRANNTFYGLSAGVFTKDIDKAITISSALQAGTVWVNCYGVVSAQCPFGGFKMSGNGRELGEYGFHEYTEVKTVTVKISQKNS
# Assay: qHTS Assay for Inhibitors of Aldehyde Dehydrogenase 1 (ALDH1A1);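 as to activity, negative = inhibition: plate controls were no enzyme wells and a reference inhibitor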
# Details: Purified ALDH1A1, NADH fluorescence, propionaldehyde substrate; series mostly up to 75.3 µM; activity, negative = inhibition: at the top concentration
# Potency is read from the fitted curve at half-maximal effect; tags tell the direction and shape of the fitted curve.
SMILES,Potency,"activity, negative = inhibition"
OCc1cc(CO)c(O)c(CCc2ccccc2)n1,"inconclusive [inhibitor, single point]",
CCCc1cc(C(N)=O)c(NC(=O)c2ccoc2C)s1,active: 17.8 µM,
COc1ccc(OC)c(C(C(=O)NCc2ccco2)N(C(=O)Cn2nnc3ccccc32)C(C)C)c1 (centres undefined),"inconclusive [inhibitor, partial curve, poor fit]",
CCOC(=O)c1cn(CC)c2cc(N3CCOCC3)c(F)cc2c1=O,"inconclusive [inhibitor, single point]",
C=C(C(=O)c1ccccc1)C(C)CC(=O)c1ccccc1 (centres undefined),"inconclusive [inhibitor, single point]",
Cc1ccc(NC(=O)C(C)NC(=O)OCc2ccccc2)cc1C (centres undefined),,inactive: -4.88%
c1cnn(-c2cncc(-n3cccn3)n2)c1,"inconclusive [inhibitor, partial curve]",
CN(C)/C=N/c1sc2c(c1C#N)CCCC2,active: 2 µM,
Cc1ccc(NC(=O)c2cc3c(=O)oc4ccc(C)cc4c3s2)nc1,"inconclusive [inhibitor, single point]",
COc1cc(/C=C/C(=O)NCc2cccnc2)cc(OC)c1OC,"inconclusive [inhibitor, single point]",
CCOCCCNC(=O)C(NC(=O)Cc1cccs1)c1ccc(OC)cc1 (centres undefined),,inactive: 0.751%
Cc1ccc(-c2n[nH]c(=S)n2/N=C/c2ccc(C)s2)cc1,,inactive: 2.71%
Cc1[nH]n(-c2ccccc2)c(=O)c1C(c1ccc(C(=O)O)cc1)c1c(C)[nH]n(-c2ccccc2)c1=O,"inconclusive [inhibitor, partial curve]",
C=CCn1c(SCC(=O)Nc2nccs2)nnc1-c1cc2cccc(OC)c2o1,"inconclusive [inhibitor, partial curve]",
COC(=O)Cn1c(=NC(=O)c2ccc(OC)cc2)sc2cc(OC)ccc21,"inconclusive [inhibitor, partial curve]",
Cc1ccc(Nc2nc(-c3cccs3)cs2)nc1,"inconclusive [inhibitor, single point]",
COc1ccccc1-c1ccc2ncnc(N3CCOCC3)c2c1,"inconclusive [inhibitor, single point]",
COC(=O)COc1cccc(NC(=O)c2ccccc2)c1,,inactive: 2.35%
NC(=O)CSc1nc2ccc([N+](=O)[O-])cc2[nH]1,,inactive: 4.94%
C/C(=N\NC(=O)CCc1ccc(S(=O)(=O)N2CCOCC2)cc1)c1ccccc1Cl,"inconclusive [inhibitor, single point]",
CC(=O)NCCNc1ncnc2ccc(-c3ccccc3C#N)cc12,"inconclusive [inhibitor, partial curve]",
O=C(CCc1nc(-c2ccccc2F)no1)Nc1ccc(Oc2ccccc2)cc1,"inconclusive [inhibitor, single point]",
Cc1cc(SCC(=O)Nc2cccc(S(N)(=O)=O)c2)c(C)cc1Br,,inactive: 9.93%
O=C(C1CCCN(S(=O)(=O)Cc2ccccc2)C1)N1CCCCC1 (centres undefined),"inconclusive [inhibitor, partial curve]",
Cc1cccc(OC(=O)c2cncc(Br)c2)c1,,inactive: -5.38%

SMILES,Potency,"activity, negative = inhibition"
CCn1cc(C(=O)Nc2cccc(C)c2)c(=O)c2ccc(C)nc21,,inactive: -2.85%
CC(=O)C1C(=O)c2c(cccc2[N+](=O)[O-])C1=Nc1ccc(S(N)(=O)=O)cc1 (centres undefined),active: 22.4 µM,
COc1ccc(N2C(=O)C(CC(=O)O)S/C2=C\C(C)=O)cc1 (centres undefined),"inconclusive [inhibitor, partial curve]",
COc1ccc([N+](=O)[O-])cc1NCc1cccc([N+](=O)[O-])c1,"inconclusive [inhibitor, single point]",
CCC(C)/C(C)=N/NC(=O)c1ccc(COc2ccc(Cl)c(C)c2)cc1 (centres undefined),active: 12.6 µM,
Cc1ccnn1C(C)C(=O)O (centres undefined),,inactive: -4.03%
CCOC(=O)c1c(CN2CCC(C)CC2)oc2ccc(OC)cc12,"inconclusive [inhibitor, partial curve]",
COc1ccc(NC(=O)Cc2ccc(C)c(C)c2)cc1Cl,"inconclusive [inhibitor, single point]",
COc1ccc(NC(=O)CC2C(=O)NCCN2C(=O)c2ccccc2)cc1 (centres undefined),,inactive: -7.88%
Cc1cc2c(c(=O)n1CC1CCCO1)C(c1ccc3c(c1)OCO3)C(C#N)=C(N)O2 (centres undefined),active: 11.2 µM,
CCCN(Cc1ccccc1)C(=S)NC(=O)c1ccccc1[N+](=O)[O-],,inactive: -12.7%
CC(C)(C)c1ccccc1NC(=O)Cn1c(=O)cnc2ccccc21,"inconclusive [inhibitor, partial curve]",
O=C(c1ccco1)N1CCN(c2nc3ccsc3c(=O)s2)CC1,active: 12.6 µM,
COc1ccc(/C=N/n2c(-c3ccco3)nc3ccccc3c2=O)cc1,,inactive: 10.1%
CC(N=C1CC(C)(C)CC(=O)/C1=C(/O)CCCN1C(=O)c2ccccc2C1=O)C(=O)O (centres undefined),,inactive: -13.3%
CN=C1SC(CC(=O)NCCc2ccc(OC)c(OC)c2)C(=O)N1C (centres undefined),"inconclusive [inhibitor, single point]",
CC(=O)NNc1cccc(Cl)n1,"inconclusive [inhibitor, single point]",
CCCCOc1ccc(C(C)(O)CCN2CCOCC2)cc1 (centres undefined),"inconclusive [inhibitor, single point]",
Cc1ccc(C(=O)C(NC(=O)c2ccco2)N2CCOCC2)cc1 (centres undefined),active: 28.2 µM,
COc1cc(OC)cc(-n2nnnc2SCC(=O)N2CCCC2)c1,,inactive: 2.33%
Cc1noc(/C=C/c2ccco2)c1S(=O)(=O)N1CCC(C(=O)N2CCc3ccccc32)CC1,"inconclusive [inhibitor, partial curve]",
CCS(=O)(=O)Nc1ccc(-c2nnc(SCC(=O)c3ccc(NC(C)=O)c(OC)c3)o2)cc1,,inactive: 3.77%
Cc1ccc(N2C(=O)C(Cl)=C(N3CCN(C)CC3)C2=O)c(C)c1,,inactive: -10.7%
Cc1cc(NO)nc(-c2ccc(Br)cc2)n1,"inconclusive [inhibitor, single point]",
